PubChem BioAssay AID485344 (National Center for Advancing Translational Sciences (NCATS), 2010)
Values joined by “and” are separate entries in the source; they are usually repeats but may differ in a detail not shown here. Equal entries are not always repeated. The whole screen tested about 340,000 compounds, of which about 6,900 (2%) were called active. Cut-off read from the data, not from the text of the source: active = inhibition above about 30%; inactive = below that, where a call was filed. Only a part is listed here, and it is no random draw. Where no call is shown, the source filed none.

Biological target: D(2) dopamine receptor (Homo sapiens) (UniProt P14416)
Chain of UniProt P14416 (P14416 whole entry, looked up): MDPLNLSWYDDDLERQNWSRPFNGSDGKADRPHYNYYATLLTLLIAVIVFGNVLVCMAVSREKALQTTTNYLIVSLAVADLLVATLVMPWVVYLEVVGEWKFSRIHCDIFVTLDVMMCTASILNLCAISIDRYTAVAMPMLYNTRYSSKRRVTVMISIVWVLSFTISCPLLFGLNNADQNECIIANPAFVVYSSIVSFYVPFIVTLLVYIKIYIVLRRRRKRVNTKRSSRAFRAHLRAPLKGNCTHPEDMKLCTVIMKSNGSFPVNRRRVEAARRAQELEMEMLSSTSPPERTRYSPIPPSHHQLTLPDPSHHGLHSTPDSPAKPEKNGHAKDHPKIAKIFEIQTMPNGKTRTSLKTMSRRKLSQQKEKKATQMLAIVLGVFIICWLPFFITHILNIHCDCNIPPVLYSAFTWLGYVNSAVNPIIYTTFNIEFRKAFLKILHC
Assay: HTS Assay for Allosteric Antagonists of the Human D2 Dopamine Receptor: Primary Screen for Antagonists; note: 0% is about no effect
Conditions: HEK293 TREx D2 cells, calcium flux, dopamine EC80; at 10 µM; stronger effect = higher value
Procedure, shortened: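 Read-out: kinetic calcium fluorescence (1 cycle/s) in inducible HEK293 T-REx D2 cells after an EC80 dopamine addition that followed 180 s compound preincubation. Loss of the dopamine response indicates antagonism.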

| Structure (SMILES) | inhibition |
| --- | --- |
| CC1=C(c2ccc(Cl)cc2)S(=O)(=O)NC1=NCCCN1CCN(c2cc(C)ccc2C)CC1 | 13.3% |
| CCC(CC)C(=O)OCc1cc(=O)n2nc(C3CC3)sc2n1 | -10.2% |
| Cn1cc(-c2cc3n(n2)CCC(=O)N3CCCC(=O)NCc2ccc(Cl)cc2)c2ccccc21 | -14.2% |
| O=C(CCCn1c(=O)c2cccn2c2ccccc21)Nc1cc(C(F)(F)F)ccc1Cl | -3.37% |
| CC1C(=O)Nc2ccc(S(=O)(=O)N3CCCCC3)cc2NC1=O (configuration not stated) | 4% |
| COc1ccc(Cn2c(CCC(=O)Nc3cc(OC)c(OC)c(OC)c3)nc3cccnc32)cc1 | -1.12% |
| O=C(CSc1nccn1Cc1ccccc1)NCc1ccco1 | -10.5% |
| CCOC(=O)c1cc(-c2ccc(OC)cc2)n(CCC(=O)Nc2ccccc2OC)c1C | -24.8% |
| CCOc1ccccc1NC(=O)CN1C(=O)COc2ccc(S(=O)(=O)N3CCOCC3)cc21 | 4.03% and active: 36.3% |
| CCOC(=O)c1ccc(N2C(=O)c3[nH]nc(-c4ccccc4)c3C2c2ccc(CC)cc2)cc1 (configuration not stated) | 4.84% |
| CCOc1ccccc1C(=O)N(Cc1ccco1)Cc1ccco1 | 19.9% |
| O=C(Cn1c(=O)n(Cc2nc(-c3ccccc3)no2)c(=O)c2ccccc21)Nc1cccc(C(F)(F)F)c1 | 13.8% |
| O=C(c1ccc2c(c1)N(Cc1ccccc1F)C(=O)c1ccccc1S2(=O)=O)N1CCC(Cc2ccccc2)CC1 | 22.5% |
| COc1ccc(-c2cc(C(=O)Nc3c(C(=O)c4ccc(C)cc4)oc4ccccc34)no2)cc1 | -9.82% |
| COc1ccccc1CNC(=O)C1CCCN(S(=O)(=O)c2ccc3c(c2)oc(=O)n3C)C1 (configuration not stated) | 11.5% |
| CCOC(=O)Cn1c(=O)n(CC2CCCO2)c2nc(-c3ccccc3OC)nc(C(N)=O)c21 (configuration not stated) | -4.82% |
| O=c1c2sc3ccccc3c2n(Cc2cccc(F)c2)c(=O)n1Cc1ccccc1 | -3.25% |
| O=C(NC1CC(=O)N(c2ccc(F)cc2)C1)c1ccc(S(=O)(=O)N2CCCCC2)cc1 (configuration not stated) | -2.45% |
| O=C(NCc1cccs1)c1ccc2c(=O)n3nc(Nc4ccccc4)sc3nc2c1 | 13.3% |
| Cc1ccc2c(c1Br)C(O)(CC(=O)c1ccc(F)cc1)C(=O)N2 (configuration not stated) | -3.74% |
| COC(=O)c1ccc(OCC2c3cc(OC)c(OC)cc3CCN2C(=O)Cc2ccc(OC)cc2)cc1 (configuration not stated) | 7% |
| COc1c(Cl)cccc1-c1cn2ccc(C)cc2n1 | active: 34.8% |
| CCOc1ccc(N2CC(NC(=O)C(=O)c3c[nH]c4ccccc34)CC2=O)cc1 (configuration not stated) | -6.92% |

| Structure (SMILES) | inhibition |
| --- | --- |
| COc1ccc(C2NC(=O)N(C)C3=C2C(=O)N(c2cccc(Cl)c2)C3)cc1 (configuration not stated) | 19% |
| CCc1ccc(Sc2cc(C(=O)NCc3cccc(OC)c3)c3ccccc3n2)cc1 | -4.47% |
| Cc1cccc(NC(=O)CSc2cn(CC(=O)N3CCCCCC3)c3ccccc23)c1 | -9.04% |
| Cc1cc(OC(C)C(=O)Nc2c(C(=O)c3ccc(F)cc3)oc3ccccc23)ccc1Cl (configuration not stated) | -10.5% |
| CCc1ccc(Sc2cc(C(=O)NCc3ccccc3OC)c3ccccc3n2)cc1 | 4.6% |
| CN(C)S(=O)(=O)N(CC(=O)NCCSCc1ccccc1)c1ccccc1 | 5.26% |
| CCCCCn1c(=O)[nH]c2cc(C(=O)Nc3cc(C)cc(C)c3)ccc2c1=O | -3.57% |
| Cc1cccc(N2C(=O)N(CC(=O)C(C)(C)C)c3ccccc3S2(=O)=O)c1C | 5.08% |
| COc1ccc(Cl)cc1NC(=O)c1cc(S(=O)(=O)NC2CCCCCC2)ccc1F | 4.84% |
| Cc1ccc(C)c(NC(=O)CN2CCCN(Cc3cccc(Cl)c3)S2(=O)=O)c1 | 14.9% |
| Cc1ccc(OCc2nc(-c3ccc(C(=O)N4CCN(c5ccccc5F)CC4)cc3)oc2C)cc1 | 2.72% |
| Cn1nc(C(=O)NCc2ccc(Cl)cc2)c2c1-c1ccccc1S(=O)(=O)C2 | 7.17% |
| Cc1cccc(-n2ncc(C(=O)N3CCN(c4ccc(Cl)cc4)CC3)c2C2CCN(C(=O)OC(C)(C)C)CC2)c1 | -15.6% |
| COc1ccc(CNC(=O)Cn2c(SCC(=O)Nc3ccc(OC)cc3)nc3ccccc32)cc1 | -0.277% |
| Cc1ccc(NC(=O)c2ccc(-c3cccc(Cl)c3C)o2)cc1 | -9.05% |
| Cc1nc2c(-c3ccccc3)cnn2c(N2CCOCC2)c1C | active: 30.8% |
| COc1ccc(OC)c(CNC(=O)c2cc3c(-c4ccc(OC)c(OC)c4)nn(C)c3s2)c1 | -5.05% |
| CCc1cccc(NC(=O)CN2C(=O)COc3ccc(S(=O)(=O)Nc4ccccc4)cc32)c1 | -5.57% |
| Cc1nnc(SCc2cnc(-c3ccc(C(C)C)cc3)s2)n1C | active: 66.5% |
| Cc1ccc(CSc2nc3ccc(NC(=O)COc4ccccc4)cc3s2)cc1 | 4.29% |
| CCOC(=O)c1ccc(N2C(=O)c3[nH]nc(-c4ccc(C)cc4)c3C2c2cccc(F)c2)cc1 (configuration not stated) | -5.76% |
| CCc1ccc(C(=O)c2cn(CC(=O)Nc3cccc(OC)c3)c3ccc(OC)cc3c2=O)cc1 | -6.1% |
| COc1ccccc1N1CCN(c2ncnc3c2cnn3-c2cc(Cl)ccc2C)CC1 | 0.618% |

| Structure (SMILES) | inhibition |
| --- | --- |
| COc1ccc(OCC(=O)NCc2ccc3c(c2)CCN3C(=O)c2ccccc2)cc1 | 4.02% |
| O=C(NCCc1ccccc1)c1cnc2sc(N3CCCCCC3)nn2c1=O | -3.61% |
| O=C(c1cc2ccccc2oc1=O)N1CCN(c2ccc(Cl)cc2)CC1 | -4% |
| Cc1cc2oc(C(=O)Nc3ccc(S(N)(=O)=O)cc3)cc(=O)c2cc1C | 8.98% |
| Cc1ccc(C(=O)N2c3ccc(C)cc3C(C)(c3ccccc3)CC2(C)C)cc1 (configuration not stated) | 9.3% |
| Cc1cc(C(F)(F)F)n2nc(-c3ccc(Br)cc3)cc2n1 | 9.08% |
| CCCCOc1ccc(-c2nn(-c3ccccc3)cc2C2NC(=O)NC(C)=C2C(=O)OCC)cc1 (configuration not stated) | 8.04% |
| CC(NC(=O)c1ccc2c(c1)CCN2S(C)(=O)=O)c1ccccc1 (configuration not stated) | -1.87% |
| Cc1c(Cl)cccc1NC(=O)c1cccc(NC(=O)N2CCSc3ncccc32)c1 | 7.86% |
| CCOc1ccc(NC(=O)CSC2=Nc3ccccc3C3=NC(CCC(=O)NCc4ccccc4)C(=O)N23)cc1 (configuration not stated) | -27.3% |
| NC(=O)c1cc[n+](Cc2ccc([N+](=O)[O-])cc2)cc1 | active: 39.2% |
| CCOC(=O)CC(NC(=O)CCc1c(C)nc2c(c(C)nn2-c2ccc(C)c(C)c2)c1C)c1ccc(C)cc1 (configuration not stated) | 3.91% |
| Cc1cc(C)cc(OCC(=O)Nc2nc3c(s2)CC(C(C)(C)C)CC3)c1 (configuration not stated) | 0.0533% |
| COc1ccc(OC)c2sc(NC(=O)c3ccc(S(=O)(=O)N4CCCC4)cc3)nc12 | 2.07% |
| Cc1cccc(-n2ncc(C(=O)N3CCN(C4CCCCC4)CC3)c2C2CCN(C(=O)OC(C)(C)C)CC2)c1 | 3.68% |
| CCc1ccc(C(=O)N/N=C/c2ccc(Cl)cc2Cl)nc1 | active: 72.8% |
| C=CC[N+](C)(C)CCCNC(=O)/C=N/O | active: 61.8% |
| CCc1nnc(NC(=O)c2nc(S(=O)(=O)Cc3ccc(C)cc3)ncc2Cl)s1 | 2.36% |
| CCC(=O)N1CCc2cc(S(=O)(=O)NC(C(=O)NCCc3ccccc3)C(C)C)ccc21 (configuration not stated) | 1.23% |
| Cc1cc(C)c(NC(=O)C(C)n2c(=O)c(C(F)(F)F)nc3ccccc32)c(C)c1 (configuration not stated) | 7.46% |
| CCn1c2ccccc2c2cc(NC(=O)c3cccc([N+](=O)[O-])c3)ccc21 | active: 42% |
| COc1ccc(CNc2nc(SCc3ccc(Cl)cc3)nc3ccccc23)cc1 | 2.83% |
| CCN(c1cccc(C)c1)S(=O)(=O)c1ccc(N2CCCCS2(=O)=O)cc1 | -8% |

| Structure (SMILES) | inhibition |
| --- | --- |
| COc1ccccc1C(=O)Oc1c(Sc2ccccc2)c(C)nn1C(C)(C)C | 10.5% |
| Cc1ccc(NC(=O)c2cc(S(=O)(=O)N(C)C3CCCCC3)ccc2F)cc1C | 15.1% |
| COc1ccc(-c2c3c(=O)n(C)c(=O)n(C)c3c3n2-c2ccccc2NC3c2ccc(OC)cc2)cc1 (configuration not stated) | 12.2% |
| CC(C)NC(=O)CN(Cc1ccc2c(c1)OCO2)C(=O)CCC(=O)Nc1ccccn1 | active: 43.2% |
| CCCCCN1C(C(=O)c2ccccc2)=C(NC(=O)c2ccc(OC)cc2)c2ccccc2S1(=O)=O | 6.51% |
| O=C(Nc1ccc(C(=O)N2CCN(c3cccc(Cl)c3)CC2)cc1)c1nsc2ccccc12 | 11.7% |
| COc1cccc(CNC(=O)Cn2c(=O)ccc3cc(S(=O)(=O)N4CCC(C)CC4)ccc32)c1 | -11.6% |
| COc1cccc(C(=O)NCc2ccc3c(c2)CCN3C(=O)c2ccncc2)c1 | 16.5% |
| COc1ccc(-n2c3c(c(=O)[nH]c2=O)C(NC(=O)c2ccccc2Cl)(C(F)(F)F)C(=O)N3)cc1 (configuration not stated) | 7.64% |
| COc1ccccc1-c1nc(SCC(=O)c2ccccc2)n[nH]1 | 6.79% |
| COc1ccc(-c2[nH]c(-c3cccc(OC)c3)nc2SCC(=O)Nc2ccc3c(c2)OCO3)cc1 | 24.1% |
| COc1cccc(-c2cc(C(=O)Nc3c(C)nn(Cc4ccccc4Cl)c3C)no2)c1 | 12.6% |
| CC(C)CCn1c(=O)c2cccnc2n(CC(=O)Nc2ccc(F)cc2)c1=O | -18.5% |
| Cc1cc2nnc(SCc3ccc(F)cc3)n2c2ccccc12 | -0.232% |
| CC1CN(c2ccc(Cl)cc2)c2nc3c(c(=O)n(CC(=O)O)c(=O)n3C)n2C1 (configuration not stated) | -4.14% |
| COc1ccc2occ(CC(=O)Nc3ccc(S(=O)(=O)Nc4nccc(C)n4)cc3)c2c1 | -9.85% |
| CN1CCN(C2(CNC(=O)c3ccc(C(C)(C)C)cc3)CCCCC2)CC1 | 4.09% |
| CCC1(C)CC(=O)c2c(ccc3oc(C(=O)NCc4ccccc4)c(C)c23)O1 (configuration not stated) | -12.9% |
| CCOc1ccc(C(=O)c2cn(CC(=O)Nc3ccc(OC)cc3)c3cc4c(cc3c2=O)OCCO4)cc1 | 3.13% |
| Cc1ccc2oc3c(c(=O)c2c1)C(c1ccc(O)cc1)N(Cc1ccc2c(c1)OCO2)C3=O (configuration not stated) | 5.48% |
| COc1ccc2[nH]c(=O)c(CN(C(=O)c3cccc(Cl)c3)c3ccccc3C)cc2c1 | -14.4% |
| CCOc1ccc(C(=O)/C=C/c2cn(CC(O)CN3CCCCCC3)c3ccccc23)cc1 (configuration not stated) | -2.05% |
| CCCCN(CC)CCNC(=O)c1c(C)oc2ncnc(N3CCOCC3)c12 | 11.3% |
